In PubChem BioAssay AID504466 (National Center for Advancing Translational Sciences (NCATS), 2011):
The whole screen tested about 330,000 compounds, of which about 4,200 (1.3%) were called active. The shares of active, inactive and inconclusive entries below differ from those in the screen. Calls follow the shape of the dose curve; as a rule, active = well fitted activation curve with a large enough effect; inconclusive = small, poorly fitted or top-dose-only effect; inactive = no such curve, though single readings can be large or run the other way. Potencies of inconclusive entries are doubtful fits and often do not repeat.

experiment: qHTS screen for small molecules that induce genotoxicity in human embryonic kidney (HEK293T) cells expressing luciferase-tagged ELG1; conditions: HEK293T ELG1-luciferase reporter, luminescence, 16 h; series mostly up to 46 µM; also: nearly all actives have a fitted effect of over 60% in size
In short: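 Genotoxic stress is detected as increased luminescence from luciferase-tagged ELG1 in HEK293T cells, measured with ONE-Glo after a 16 hr treatment at 37 °C.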
Potency is read from the fitted curve at half-maximal effect; tags tell the direction and shape of the fitted curve.

Row | Structure (SMILES) | Potency
1 | Fc1ccc2cnc(-c3cccnc3)cc2c1 | inconclusive: 32.6 µM [activator, partial curve, poor fit]
2 | C/C(=N/NC(=O)c1ccc(Br)o1)c1cccs1 | active: 9.2 µM
3 | O=C(Nc1ccccn1)Nc1ccccc1[N+](=O)[O-] | inconclusive: 16.4 µM [activator, partial curve, poor fit]
4 | CCOC(=O)c1sc(NC(=O)Nc2ccc(F)cc2)nc1C | inconclusive: 1.46 µM [activator, partial curve]
5 | COC(=O)c1cc(C(=O)NCc2ccc3c(c2)OCO3)cc([N+](=O)[O-])c1 | inactive
6 | CC(=O)Nc1ccc(-c2nc3ccc(NC(C)=O)cc3o2)cc1 | inconclusive: 18.3 µM [activator, partial curve]
7 | Cc1csc(NC(=O)c2ccc(C)c([N+](=O)[O-])c2)n1 | inconclusive: 0.731 µM [activator, full curve]
8 | Cn1c(-c2ccc(Br)o2)nc2cc(Br)ccc21 | inconclusive: 3.26 µM [activator, partial curve]
9 | CCOC(=O)c1cc2cc(C)ccc2[nH]1 | active: 20.6 µM
10 | CC(C)CC(=O)Nc1cc2nn(-c3ccccc3)nc2cc1Cl | active: 4.61 µM
11 | COc1cc(CNc2ccc(N3CCCC3)cc2)ccc1OCc1ccccc1 | inconclusive: 23.1 µM [activator, partial curve, poor fit]
12 | CN(C)c1cccc(C(=O)OCCCC(=O)c2ccc(F)cc2)c1 | inactive
13 | Cc1cc(C)nc(SCNC(=O)c2ccccc2)n1 | inactive
14 | CC1CN(S(=O)(=O)c2csc(C(=O)Nc3ccccc3)c2)CC(C)O1 (centres undefined) | inactive
15 | CCCCn1c(N)c(N(Cc2ccccc2OC)C(=O)COc2ccc(C)cc2)c(=O)[nH]c1=O | inactive
16 | Cc1c(C(=O)Nc2ccc3c(c2)CCC3)cccc1[N+](=O)[O-] | inconclusive: 9.2 µM [activator, partial curve, poor fit]
17 | COc1cc(C)c(C(=O)Oc2cc(C)c(C(=O)O)c(O)c2)c(O)c1 | inactive
18 | CCCn1ncc(CN2CCC(N3CCC(C(=O)N4CCOCC4)CC3)CC2)c1C | inactive
19 | O=C(Nc1nnc(CCc2ccccc2)s1)c1cccc(F)c1 | inconclusive: 23.1 µM [activator, partial curve, poor fit]
20 | CS(=O)(=O)N1CCc2cc(C(=O)Nc3ccccc3Cl)ccc21 | inconclusive: 11.6 µM [activator, partial curve, poor fit]
21 | COC(=O)CSc1nc(-c2cccs2)ccc1C#N | active: 8.2 µM
22 | COc1ccc(N=CC2=C(O)c3ccccc3C2=O)cc1 | inconclusive: 0.1 µM [activator, full curve, poor fit]
23 | O=C(Nc1ccc2c(c1)Cc1ccccc1-2)c1ccc(Br)o1 | inconclusive: 14.6 µM [activator, partial curve, poor fit]
24 | O=c1c2ccccc2nc2oc3ccccc3n12 | active: 10.3 µM
25 | CC(C)(C)c1ccc(/C=C/C(=O)N2CCCCC2)cc1 | inconclusive: 6.51 µM [activator, partial curve]

Row | Structure (SMILES) | Potency
26 | Cc1ccc(C(=O)Cn2nnc(-c3ccccc3)n2)cc1 | inactive
27 | CCOC(=O)c1c(SCC(=O)Nc2nccs2)nc(C)c(C)c1C | inconclusive: 4.61 µM [activator, partial curve, poor fit]
28 | CCOC(=O)c1c(C)nc2sc(C(=O)Nc3ccc(OC)cc3)c(N)c2c1-c1ccc(OC)cc1 | inactive
29 | CCOc1ccc(NC(=O)c2nccnc2CO)cc1 | inconclusive: 10.3 µM [activator, partial curve, poor fit]
30 | CN1C(=O)c2cccc3c(S(=O)(=O)Nc4ccccn4)ccc1c23 | inconclusive: 23.1 µM [activator, single point]
31 | CNc1nc(C)c(C#N)c(-c2ccccc2)c1C(C)=O | inconclusive: 10.3 µM [activator, partial curve]
32 | CC(C)[C@H](NC(=O)c1ccccc1Cl)C(=O)OCC(=O)NCc1ccc2c(c1)OCO2 | inactive
33 | Nc1c([N+](=O)[O-])c(=O)oc2ccccc12 | inactive
34 | c1ccc(Cn2c(-c3cccs3)nc3nc4ccccc4nc32)cc1 | inactive
35 | Nc1c(-c2ccc(Cl)cc2)cnn1-c1ccccc1 | active: 6.51 µM
36 | Cc1ccccc1Cn1cc(NC(=O)c2nc3ncccn3n2)cn1 | inconclusive: 13 µM [activator, partial curve]
37 | Cc1ccc2c(c1Br)/C(=N/N1C(=O)c3ccccc3C1=O)C(=O)N2 | inactive
38 | Cc1ccc(SCC(=O)Nc2ccc(-c3nc4ccccc4[nH]3)cc2)cc1 | inconclusive: 29.1 µM [activator, partial curve, poor fit]
39 | COC(=O)c1ccc(COC(=O)CNC(=O)c2ccc(OC)cc2)cc1 | inconclusive: 14.6 µM [activator, partial curve, poor fit]
40 | O=C(Nc1ccc(NS(=O)(=O)c2ccccc2)cc1)c1ccc(Cl)cc1 | inconclusive: 18.3 µM [activator, partial curve, poor fit]
41 | CCCNc1ccc(C(=O)OCC)cc1[N+](=O)[O-] | inconclusive: 10.3 µM [activator, partial curve]
42 | NC(=O)c1c(NC(=O)c2cccnc2Cl)sc2c1CCCC2 | inactive
43 | c1ccc(OCCCc2nc(-c3ccccn3)no2)cc1 | active: 18.4 µM
44 | O=c1[nH]c(N/N=C\c2ccc(F)cc2)nc2ccccc12 | inconclusive: 5.17 µM [activator, partial curve]
45 | Nc1c(C(=O)NCCN2CCOCC2)c2nc3ccccc3nc2n1-c1cccc(F)c1 | inactive
46 | Cc1ccc(C2C=NN(c3ccccc3)C2=O)cc1 (centres undefined) | inconclusive: 20.6 µM [activator, partial curve, poor fit]
47 | Cc1cccc(OCCn2c(=O)sc3ccccc32)c1 | inconclusive: 20.6 µM [activator, partial curve]
48 | CCC(=O)c1ccc(N2CCCCCC2)c(F)c1 | inconclusive: 29.1 µM [activator, single point]
49 | Cc1ccc(OC(F)F)c(NC(=O)Nc2ccc3c(c2)OCO3)c1 | inactive
